Where two headings read alike, the source gives them in different places. Some values that stand alone complete this part of the results.

For `CC1(N2Cc3c(N)cccc3C2=O)CCC(=O)NC1=O` (centres unmarked) [Example 17, 3-(4-Amino-1-oxoisoindolin-2yl)-3-methylpiperidine-2,6-dione], the melting point by setting is: (recrystallized from methanol three times) 289 to 292 °C; (solid slurried in methylene chloride) 268 to 270 °C.

By melting point is commonly meant the temperature of the solid-liquid transition.

The values are drawn from patent US8288415B2, “Pharmaceutical compositions of 3-(4-amino-1-oxoisoindolin-2yl)-piperidine-2,6-dione” (Celgene Corporation, priority 1999, dated 2012).
